The target of assay [1] is BChE (butyrylcholinesterase) (Equus caballus, UniProt P81908). Description: biochemical.
For assay [2], the target named is AChE (acetylcholinesterase) (Electrophorus electricus, UniProt O42275). Description: biochemical.

Structures are written as SMILES.

UniProt P81908, sequence (P81908 whole entry): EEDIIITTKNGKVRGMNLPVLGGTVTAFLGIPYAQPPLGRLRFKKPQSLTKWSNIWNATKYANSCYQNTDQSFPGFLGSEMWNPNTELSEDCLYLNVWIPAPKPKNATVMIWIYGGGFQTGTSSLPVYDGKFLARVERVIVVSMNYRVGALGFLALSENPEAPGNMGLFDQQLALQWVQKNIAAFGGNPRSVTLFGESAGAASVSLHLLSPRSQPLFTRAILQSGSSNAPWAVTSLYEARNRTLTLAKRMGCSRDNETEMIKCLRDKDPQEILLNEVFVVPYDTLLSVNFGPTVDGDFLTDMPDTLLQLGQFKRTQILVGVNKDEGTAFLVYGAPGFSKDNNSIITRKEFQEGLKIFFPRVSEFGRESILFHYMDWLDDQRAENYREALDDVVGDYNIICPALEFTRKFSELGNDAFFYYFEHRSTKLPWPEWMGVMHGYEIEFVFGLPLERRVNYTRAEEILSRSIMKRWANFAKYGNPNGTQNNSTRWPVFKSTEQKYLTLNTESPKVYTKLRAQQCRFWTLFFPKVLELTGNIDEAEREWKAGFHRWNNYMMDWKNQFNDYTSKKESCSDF

Compound `c1coc(Cn2nnc3ccc4ccsc4c32)c1` [compound 23, 1-(furan-2-ylmethyl)-1H-thieno[2′,3′:3,4]benzo[1,2-d][1,2,3]triazole] came in with an IC50 in assay [1] of 70 µM.
For `Fc1cccc(Cn2nnc3ccc4sccc4c32)c1` [compound 24], the IC50 in assay [2] was found to be 113 µM; in assay [1] it was 31 µM.
With `COc1cccc(Cn2nnc3ccc4sccc4c32)c1` [compound 25], the 50% inhibitory concentration (IC50) in assay [1] is 29.3 µM.
The same measure, in the same setting: the value for `Clc1cccc(Cn2nnc3ccc4sccc4c32)c1` [compound 26] was 20.6 µM; that for `CN(C)c1ccc(Cn2nnc3ccc4ccsc4c32)cc1` [compound 27, 4-((1H-thieno[2′,3′:3,4]benzo[1,2-d][1,2,3]triazol-1-yl)methyl)-N,N-dimethylaniline] was 31.1 µM.
On the same count and under the same terms, the value for `C=CCCn1nnc2ccc3ccsc3c21` [compound 28, 1-(but-3-en-1-yl)-1H-thieno[2′,3′:3,4]benzo[1,2-d][1,2,3]triazole] was 79.4 µM; that for `Cc1cc2c(ccc3nnn(Cc4ccc(N(C)C)cc4)c32)s1` [compound 29] was 92.2 µM.
In the case of `COc1ccc2ccc3nnn(Cc4ccc(N(C)C)cc4)c3c2c1` [compound 30, 4-((8-methoxy-1H-naphtho[1,2-d][1,2,3]triazol-1-yl)methyl)-N,N-dimethylaniline], in assay [2], the IC50 amounted to 171 µM.
In assay [1], `C=CCn1nnc2ccc3ccc(Cl)cc3c21` [compound 31, 1-allyl-8-chloro-1H-naphtho[1,2-d][1,2,3]triazole] showed an IC50 of 232 µM.
`C=CCCn1nnc2ccc3ccc(Cl)cc3c21` [compound 32, 1-(but-3-en-1-yl)-8-chloro-1H-naphtho[1,2-d][1,2,3]triazole]: the IC50 in assay [2] turned out to be 195 µM; in assay [1], 71 µM.
`COc1ccc(Cn2nnc3ccc4ccc(Cl)cc4c32)cc1` [compound 33, 8-chloro-1-(4-methoxybenzyl)-1H-naphtho[1,2-d][1,2,3]triazole]: inhibition in assay [1] was half-maximal at 195 µM (IC50).
For the compound `COc1ccc(CCn2n[n+](C)c3ccc4sccc4c32)cc1` [compound 44, 1-(4-methoxyphenethyl)-3-methyl-1H-thieno[3′,2′:3,4]benzo[1,2-d][1,2,3]triazol-3-ium iodide], the values for the IC50 in assay [2] and in assay [1] were 1.8 µM and 0.3 µM, respectively.
The corresponding values for `CCOC(=O)CCn1n[n+](C)c2ccc3sccc3c21` [compound 45, 1-(3-ethoxy-3-oxopropyl)-3-methyl-1H-thieno[3′,2′:3,4]benzo[1,2-d][1,2,3]triazol-3-ium iodide] are 4.3 µM and 9.2 µM.
Taken in the same sequence, the figures for `C[n+]1nn(Cc2ccc(C(F)(F)F)cc2)c2c3ccsc3ccc21` [compound 46, 3-methyl-1-(4-(trifluoromethyl)benzyl)-1H-thieno[3′,2′:3,4]benzo[1,2-d][1,2,3]triazol-3-ium iodide] were 6.9 µM and 1.8 µM.
Taken in the same sequence, the figures for `C[n+]1nn(CCN2CCOCC2)c2c3ccsc3ccc21` [compound 47, 3-methyl-1-(2-morpholinoethyl)-1H-thieno[3′,2′:3,4]benzo[1,2-d][1,2,3]triazol-3-ium iodide] were 15.3 µM and 9.8 µM.
On to `C[n+]1nn(CCCCO)c2c3ccsc3ccc21` [compound 48, 1-(4-hydroxybutyl)-3-methyl-1H-thieno[3′,2′:3,4]benzo[1,2-d][1,2,3]triazol-3-ium iodide], for which the figures for the IC50 in assay [2] and in assay [1] were 168 µM and 37.2 µM, respectively.
With `C[n+]1nn(Cc2ccc(F)cc2)c2c3ccsc3ccc21` [compound 49, 1-(4-fluorobenzyl)-3-methyl-1H-thieno[3′,2′:3,4]benzo[1,2-d][1,2,3]triazol-3-ium iodide], the results for the concentration for half-maximal inhibition (IC50) in assay [2] and in assay [1] were 6.7 µM and 9.4 µM, respectively.
With `C[n+]1nn(Cc2ccc(C(F)(F)F)cc2)c2c1CCc1sccc1-2` [compound 50, 3-methyl-1-(4-(trifluoromethyl)benzyl)-4,5-dihydro-1H-thieno[3′,2′:3,4]benzo[1,2-d][1,2,3]triazol-3-ium iodide], the IC50 in assay [2] was determined as 29.3 µM; in assay [1], 29.7 µM.
The corresponding values for `C[n+]1nn(CCN2CCOCC2)c2c1CCc1sccc1-2` [compound 51, 3-methyl-1-(2-morpholinoethyl)-4,5-dihydro-1H-thieno[3′,2′:3,4]benzo[1,2-d][1,2,3]triazol-3-ium iodide] are 20.3 µM and 17.5 µM.

The term IC50 denotes the midpoint of a concentration-inhibition curve.

For the origin of these results see publication PMC11013433, “New Charged Cholinesterase Inhibitors: Design, Synthesis, and Characterization” (Molecules, 2024).
